According to the supplement of paper PMC3334620:
Whole data set: some 33,000 sequences, median “E-score (-0.5 to 0.5)” near -0.036, cut for the highest 2% near 0.37. This is one part of the list.

These sequences were tested against T1, Yer064c (UniProt P40041) (assay: PBM E-score (8-mer binding enrichment) (E-score (-0.5 to 0.5)); higher = stronger / more preferred TF binding; most listed sequences are background and not binding sites). Settings: protein concentration: 200 nM; construct: GST-full length.
T1 sequence: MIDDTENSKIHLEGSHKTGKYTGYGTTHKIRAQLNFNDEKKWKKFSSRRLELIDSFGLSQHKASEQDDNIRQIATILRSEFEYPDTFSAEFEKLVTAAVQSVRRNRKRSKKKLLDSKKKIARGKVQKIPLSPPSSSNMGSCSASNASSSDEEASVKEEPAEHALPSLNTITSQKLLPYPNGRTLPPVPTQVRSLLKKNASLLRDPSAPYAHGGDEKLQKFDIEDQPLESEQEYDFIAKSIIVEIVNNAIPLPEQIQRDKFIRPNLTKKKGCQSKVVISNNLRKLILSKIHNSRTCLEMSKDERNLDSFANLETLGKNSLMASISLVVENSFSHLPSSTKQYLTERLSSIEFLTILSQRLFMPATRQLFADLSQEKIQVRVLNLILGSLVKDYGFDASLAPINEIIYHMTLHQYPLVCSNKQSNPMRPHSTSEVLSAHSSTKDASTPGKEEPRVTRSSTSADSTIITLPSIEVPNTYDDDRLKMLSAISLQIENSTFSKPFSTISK
Summary of the method: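 Each ungapped eight-base word and its reverse complement, pooled, received an E-score from the Universal PBM Analysis Suite. Underlying scans, normalised with masliner, recorded fluorescent anti-GST bound to GST-tagged yeast transcription factors. These were applied at about 100-200 nM to universal all-10-mer Agilent arrays double-stranded by primer extension.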

Sequence | PBM E-score
ATTGAGGG | -0.27
CCGCTCCC | -0.282
AGACTCAC | 0.457
ATAAGTAT | 0.0353
ATATCTAG | 0.117
CAGGTTAG | 0.00036
CTTCGTTA | 0.176
CGGCCGCC | -0.157
AATTGTGC | 0.00102
CCTATCGA | -0.153
CGTCAGGC | -0.19
GAGGCCGA | -0.0783
CTCCCACC | -0.12
CGTGCTCA | 0.0413
CCACGACG | -0.0728
GATGCCAA | -0.13
CGTCTAGA | 0.00747
ACTTTATG | 0.129
GCGTACGA | 0.057
TAATAGGA | 0.0287
TGACCACA | 0.0748
GGCCGGCA | -0.254
ATTCCAAA | 0.0558
CGCACTCA | 0.0489
CGATAGAG | -0.0375

Sequence | PBM E-score
ACTTCTAG | -0.0679
AAACATAG | 0.00384
AAGTGCGG | -0.109
CCATTGTC | -0.129
ACATGTTC | -0.16
GCCAGTAA | -0.0791
ACAATAGA | 0.0208
AGCCGTAG | 0.0413
ATTGGGGG | -0.275
CAGATCCG | -0.0473
AAATAGCC | -0.0276
CACAACTG | -0.113
CTTGGAAC | 0.00351
GGCAGCAC | -0.22
GGTCCGGA | -0.148
CGATGTTC | -0.274
GCGGCGCA | -0.231
ATTGGTGC | -0.162
GAACAAGA | 0.0948
TAATAATA | 0.106
CTATACAA | 0.0789
CGGAGCGC | -0.163
GTTCTGAA | 0.0639
TAGGCTCA | -0.0588
CAGCACCA | -0.141

Sequence | PBM E-score
TCTTGACA | 0.113
ACTAAGTG | 0.289
CGGGCGTA | -0.211
CGGTCTAA | 0.0445
GAGGAGCA | -0.169
ATCGTTTC | 0.0724
CCAGAACA | -0.121
GCAAAGCC | -0.263
AAAACTAG | -0.0645
CACGGTAC | 0.193
CATTATCC | -0.136
AAAGATGG | -0.153
GCGTTCTA | -0.149
GAGCATGA | 0.141
GAAGTATA | -0.0537
CCTGCACC | -0.265
CAATCTGA | 0.161
CAGCTCAC | 0.123
CTTTGTCC | -0.195
ACCCCGCC | -0.11
ACCAACAG | -0.155
CCCGCCCA | -0.0709
AACCTGGT | 0.0722
ACTAGCCT | 0.145
ACACCCCT | 0

Sequence | PBM E-score
ACCAGGAA | -0.0771
GCGTACCA | -0.257
AGTGGCGC | -0.289
GGCAGACC | -0.194
AGGGTGTG | -0.00223
GAGTCGGC | 0.412
ACCTTCGT | -0.095
CGTCAGAA | -0.00133
CTCTTTCA | 0.146
CTCCATGC | 0.0157
CCGATCGG | -0.303
AATCCGCC | -0.0644
AAATGCTT | -0.157
ATCCAGAT | -0.0843
TCAGCACA | 0.0939
ACGGATGA | 0.248
CCCCTTCA | -0.223
ACGTTAGT | 0.304
GTTCGGAA | -0.0148
GGCTAGGA | -0.0539
GATCCATA | 0.108
ACTGACTC | 0.461
GAACGCCA | -0.19
TGCTTGAA | 0.159
ACCCGGTA | 0.00231

Sequence | PBM E-score
CTGGGTTA | 0.187
CTGAGGTC | 0.00815
CAAGTGAC | 0.191
CCTCTTGC | -0.247
GAGGTTCC | -0.0606
AAAGCTAT | -0.0843
CTGGAAGC | -0.23
CATAGAGC | -0.112
AATGCACC | -0.162
AATTAACC | 0.0197
ATACGACA | 0.144
ATAAGAAT | 0.23
AGCAACGC | 0.0114
AAAGGCCA | -0.188
ACCAGTAA | 0.0203
ACATTACA | 0.048
AAACTGTG | -0.0191
GGCCTCAC | -0.251
AGGCGCTC | -0.258
GATGACAA | -0.0714
GCGAACAC | -0.193
CCTTGCAG | -0.228
TAACTCAA | 0.263
ATATGCGA | -0.0316
ATCTGCTG | 0.0771

Sequence | PBM E-score
CCAGGGGC | -0.302
CTCCCCCA | -0.16
CTCACCTC | 0.108
CCTCGGGC | -0.0902
AACGACGG | -0.176
CCACATTA | -0.0329
ACGGAGGA | -0.108
CGCGAGTA | 0.0526
CATTGTGA | 0.0944
ACCAGACA | -0.192
CTAGTCGA | 0.214
GACCATGA | 0.157
CTGAACCA | 0.258
TGAATCCA | 0.256
CAACGAGC | -0.162
GTCCAAAA | 0.0165
AATCGTGC | 0.137
AAAAAGTC | 0.224
AACGACAT | -0.129
TGCAGACA | -0.0271
AAGGCTGC | -0.207
CTTTCAGA | 0.0329
CGACGGCG | -0.121
CGCCAATA | -0.173
ACTTACCT | -0.00383

Sequence | PBM E-score
AATGCCTA | -0.329
GAAGTAAA | 0.0818
TCATGGGA | 0.138
AGTGAGAC | 0.283
CTAGGCGC | -0.175
CGAGTCAG | 0.46
CTATACCA | -0.0379
AACTTGAT | 0.149
GGACGTAC | -0.0832
AGTAGTAT | 0.0828
ACAGCAGC | -0.0564
CACTCCAG | 0.101
CAGCTGAG | 0.0228
CGTCCTAC | -0.163
TCCTTACA | -0.0826
AGTTACAA | 0.18
ATAGTAAT | 0.291
AGACCAGG | -0.166
CCGTACAC | 0.00575
CAAGGGGG | -0.331
ATCTGGAA | -0.103
AAGTGTGA | 0.137
